The supplement of paper PMC10369915
The list shows a part of the results. Rule as the data show it: active = 3.2 or more and inactive = the rest. Only a few entries rise above the background.

target: SHP2 C-SH2 domain E139D; experiment: enrichment score (SH2-bound / input frequency) (ratio); bacterial display of known human phosphotyrosine sites (pTyr-Var adds point mutants) read by sequencing; higher = stronger binding; tyrosines were phosphorylated by kinases first; details: peptide library: pTyr-Var
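Also: displayed peptides selected on beads carrying the immobilized SH2 domain, with library peptides lacking any tyrosine serving as negative controls.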

Enrichment score, inactive:
NETNKYQISVN [FGB_Y368_A365T] 1.03
LVSCAYQVARG [FGFR1_Y605] 0.839
LGGSPYPRVPV [FGFR1_Y701_G703R] 0.921
NRDNTYNRVSE [FGA_Y127] 0.403
FMYKVYSDPQP [FGFR1_Y280_C277Y] 0.611
WKESWYSMRKM [FGB_Y475_G472E] 1.15
ISGGGYRARPA [FGB_Y71] 0.531
IHHIDYFKETT [FGFR1_Y653_K656E_YF] 1.26
MFFSTYDRDND [FGB_Y408] 1.29
FASALYRQRRS [FGF11_Y162_YF] 0.211
MPLDQYSPSFP [FGFR1_Y776] 0.687
PHQTIYGALMI [FGF23_Y70_S71G] 0.441
CTNELYMMMRD [FGFR1_Y730] 0.922
MNPPPYSQLLS [FGF23_Y154_F157L] 0.723
PPVVNYEQDAR [FER_Y402_E404Q] 0.673
FMCKVYSDPQP [FGFR1_Y280] 0.721
LGGSPYPGVPV [FGFR1_Y701] 0.773
NVVNEYSSELE [FGB_Y172] 1.03

target: SHP2 C-SH2 domain wild-type; experiment: as above; details: peptide library: pTyr-Var

Enrichment score, inactive:
NETNKYQISVN [FGB_Y368_A365T] 0.753
LVSCAYQVARG [FGFR1_Y605] 1.02
LGGSPYPRVPV [FGFR1_Y701_G703R] 0.79
NRDNTYNRVSE [FGA_Y127] 0.592
FMYKVYSDPQP [FGFR1_Y280_C277Y] 0.479
WKESWYSMRKM [FGB_Y475_G472E] 1.12
ISGGGYRARPA [FGB_Y71] 0.435
IHHIDYFKETT [FGFR1_Y653_K656E_YF] 0.93
MFFSTYDRDND [FGB_Y408] 1.07
FASALYRQRRS [FGF11_Y162_YF] 0.406
MPLDQYSPSFP [FGFR1_Y776] 0.845
PHQTIYGALMI [FGF23_Y70_S71G] 0.834
CTNELYMMMRD [FGFR1_Y730] 1.51
MNPPPYSQLLS [FGF23_Y154_F157L] 0.765
PPVVNYEQDAR [FER_Y402_E404Q] 0.558
FMCKVYSDPQP [FGFR1_Y280] 1.14
LGGSPYPGVPV [FGFR1_Y701] 0.639
NVVNEYSSELE [FGB_Y172] 0.72

target: SHP2 N-SH2 domain L43F; experiment: as above; details: peptide library: pTyr-Var

Enrichment score, inactive:
NETNKYQISVN [FGB_Y368_A365T] 0.823
LVSCAYQVARG [FGFR1_Y605] 1.16
LGGSPYPRVPV [FGFR1_Y701_G703R] 0.773
NRDNTYNRVSE [FGA_Y127] 0.542
FMYKVYSDPQP [FGFR1_Y280_C277Y] 0.699
WKESWYSMRKM [FGB_Y475_G472E] 1.04
ISGGGYRARPA [FGB_Y71] 0.502
IHHIDYFKETT [FGFR1_Y653_K656E_YF] 1.07
MFFSTYDRDND [FGB_Y408] 1.34
FASALYRQRRS [FGF11_Y162_YF] 0.227
MPLDQYSPSFP [FGFR1_Y776] 0.749
PHQTIYGALMI [FGF23_Y70_S71G] 0.809
CTNELYMMMRD [FGFR1_Y730] 1.01
MNPPPYSQLLS [FGF23_Y154_F157L] 0.805
PPVVNYEQDAR [FER_Y402_E404Q] 0.662
FMCKVYSDPQP [FGFR1_Y280] 1.06
LGGSPYPGVPV [FGFR1_Y701] 0.767
NVVNEYSSELE [FGB_Y172] 0.719

target: SHP2 N-SH2 domain T42A; experiment: as above; details: peptide library: pTyr-Var

Enrichment score, inactive:
NETNKYQISVN [FGB_Y368_A365T] 0.689
LVSCAYQVARG [FGFR1_Y605] 0.789
LGGSPYPRVPV [FGFR1_Y701_G703R] 0.716
NRDNTYNRVSE [FGA_Y127] 0.402
FMYKVYSDPQP [FGFR1_Y280_C277Y] 0.447
WKESWYSMRKM [FGB_Y475_G472E] 0.943
ISGGGYRARPA [FGB_Y71] 0.505
IHHIDYFKETT [FGFR1_Y653_K656E_YF] 0.916
MFFSTYDRDND [FGB_Y408] 1.38
FASALYRQRRS [FGF11_Y162_YF] 0.239
MPLDQYSPSFP [FGFR1_Y776] 0.588
PHQTIYGALMI [FGF23_Y70_S71G] 0.771
CTNELYMMMRD [FGFR1_Y730] 0.865
MNPPPYSQLLS [FGF23_Y154_F157L] 0.668
PPVVNYEQDAR [FER_Y402_E404Q] 0.812
FMCKVYSDPQP [FGFR1_Y280] 0.706
LGGSPYPGVPV [FGFR1_Y701] 0.567
NVVNEYSSELE [FGB_Y172] 0.805

target: SHP2 N-SH2 domain T52S; experiment: as above; details: peptide library: pTyr-Var

Enrichment score, inactive:
NETNKYQISVN [FGB_Y368_A365T] 0.838
LVSCAYQVARG [FGFR1_Y605] 0.802
LGGSPYPRVPV [FGFR1_Y701_G703R] 0.744
NRDNTYNRVSE [FGA_Y127] 0.573
FMYKVYSDPQP [FGFR1_Y280_C277Y] 0.531
WKESWYSMRKM [FGB_Y475_G472E] 1.08
ISGGGYRARPA [FGB_Y71] 0.551
IHHIDYFKETT [FGFR1_Y653_K656E_YF] 1.16
MFFSTYDRDND [FGB_Y408] 1.28
FASALYRQRRS [FGF11_Y162_YF] 0.204
MPLDQYSPSFP [FGFR1_Y776] 0.568
PHQTIYGALMI [FGF23_Y70_S71G] 0.711
CTNELYMMMRD [FGFR1_Y730] 0.821
MNPPPYSQLLS [FGF23_Y154_F157L] 0.78
PPVVNYEQDAR [FER_Y402_E404Q] 0.658
FMCKVYSDPQP [FGFR1_Y280] 0.507
LGGSPYPGVPV [FGFR1_Y701] 0.873
NVVNEYSSELE [FGB_Y172] 0.899

target: SHP2 N-SH2 domain wild-type; experiment: as above; details: peptide library: pTyr-Var

Enrichment score, inactive:
NETNKYQISVN [FGB_Y368_A365T] 0.52
LVSCAYQVARG [FGFR1_Y605] 1.24
LGGSPYPRVPV [FGFR1_Y701_G703R] 0.863
NRDNTYNRVSE [FGA_Y127] 0.48
FMYKVYSDPQP [FGFR1_Y280_C277Y] 0.662
WKESWYSMRKM [FGB_Y475_G472E] 1.46
ISGGGYRARPA [FGB_Y71] 0.571
IHHIDYFKETT [FGFR1_Y653_K656E_YF] 0.953
MFFSTYDRDND [FGB_Y408] 1.09
FASALYRQRRS [FGF11_Y162_YF] 0.24
MPLDQYSPSFP [FGFR1_Y776] 0.695
PHQTIYGALMI [FGF23_Y70_S71G] 0.996
CTNELYMMMRD [FGFR1_Y730] 1.45
MNPPPYSQLLS [FGF23_Y154_F157L] 0.781
PPVVNYEQDAR [FER_Y402_E404Q] 0.798
FMCKVYSDPQP [FGFR1_Y280] 1.18
LGGSPYPGVPV [FGFR1_Y701] 0.878
NVVNEYSSELE [FGB_Y172] 1.29
